The source gives no read counts; variants with many changes may rest on few reads.

B1: LINE1-mini (parent)
chain: GGCAGAGCUCAACACAGCGUGGCAAAGUGGCUGUGGCUAGACUGCC

In the data set the parent is B1. Briefly: self-cleavage, relative activity (ratio to wild type); higher = more cleavage; in vitro, sequencing; the parent is a self-cleaving ribozyme.
For U9G A24U G44U, the self-cleavage was 0.05.

Take U9G A12G C23A: the self-cleavage amounted to 0.01.

As to U9C G17C G33U C37U, the self-cleavage was 0.02.

U9C G22U C23A: the self-cleavage came to 0.01.

Regarding U9C G21C U34G G36A, the self-cleavage is 0.04.

Take U9A U28C G33U G40C U43G: the self-cleavage amounted to 0.02.

For U9A U20C U32C, the self-cleavage was determined as 0.52.

Turning to U9C A39U C42G, the self-cleavage was found to be 0.02.

In the case of U9C G19A C46A, the self-cleavage is 0.01.

With U9C C10U A11C, the self-cleavage amounted to 0.04.

Regarding U9C C13U A14C G22A U32G A41U, the self-cleavage came out at 0.

Regarding U9C A14G A26C, the self-cleavage turned out to be 0.01.

Take U9C A14U A24C C31G: the self-cleavage came out at 0.01.

For the variant U9C U20G G27C G36A C37A U38G, the self-cleavage stood at 0.

For U9C G29U C31G C37U, the self-cleavage was 0.08.

Regarding U9C A11U C31A G36C, the self-cleavage was 0.02.

Regarding U9C A14G G35C A41C, the self-cleavage was 0.01.

With U9G A16U U32G C45U, the self-cleavage worked out at 0.07.

In the case of U9C G17C C31U G44A, the self-cleavage came out at 0.03.

Take U9C G35A U43A: the self-cleavage amounted to 0.01.

U9C C10U C23A: the self-cleavage stood at 0.02.

Take U9C G40A A41U: the self-cleavage came out at 0.06.

For the variant U9C G21U G36A, the self-cleavage turned out to be 0.03.

In the case of U9G A14U C15U U32C, the self-cleavage was 0.11.

In the case of U9A U34A G36C, the self-cleavage was 0.09.

In the case of U9G C10G U34C, the self-cleavage came to 0.04.

In the case of U9C C13G G30C, the self-cleavage was 0.03.

For the variant U9C G30U G40U C46G, the self-cleavage was determined as 0.05.

With U9C G30A C37A C46A, the self-cleavage was 0.01.

On to U9C A14G G22A G30C U34A G36U A39U, for which the self-cleavage was found to be 0.

U9C G29U G35U G40C A41C: the self-cleavage is 0.01.

On to U9G A14G G40U, for which the self-cleavage was determined as 0.18.

As to U9C G22A C31G, the self-cleavage stood at 0.01.

Consider U9G A14C C15U A41U, for which the self-cleavage amounted to 0.04.

For the variant U9C C10A C15U A26G A39U, the self-cleavage was 0.01.

Regarding U9G A12C C13A C46A, the self-cleavage amounted to 0.01.

In the case of U9G C10A C15A G19A, the self-cleavage worked out at 0.03.

Regarding U9G A24G C37A C45G, the self-cleavage was found to be 0.12.

Turning to U9G A12C C15U C37G, the self-cleavage amounted to 0.01.

As for U9C U28G U38A, the self-cleavage turned out to be 0.

As for U9C C10G A12C A14U A26G C42U, the self-cleavage was 0.01.

Consider U9C C10A G40C, for which the self-cleavage is 0.03.

Take U9C A14U G21A U43C: the self-cleavage stood at 0.02.

Regarding U9C A14G G33U, the self-cleavage came to 0.03.

With U9C U34C G40A C46U, the self-cleavage came to 0.01.

For the variant U9C G30U C42A, the self-cleavage turned out to be 0.03.

With U9G A11U C13A, the self-cleavage was 0.01.

Take U9C G17A A26U C31A G33A U38A C42U: the self-cleavage was found to be 0.

As for U9C C10U C45A, the self-cleavage came out at 0.03.

As to U9G A12U G17A C46A, the self-cleavage is 0.07.

Turning to U9C C10G C13A C15A C18U, the self-cleavage stood at 0.03.

U9C G27C U28A: the self-cleavage turned out to be 0.01.

As for U9G A11G A26G C42U, the self-cleavage worked out at 0.

In the case of U9G A24G G44A, the self-cleavage worked out at 0.03.

With U9C C13A C18A U43A, the self-cleavage was 0.01.

For the variant U9A U20G G40U, the self-cleavage worked out at 0.12.

U9G A14C A25U: the self-cleavage was determined as 0.01.

Regarding U9G A11C U20A, the self-cleavage worked out at 0.01.

In the case of U9C G19A A24G G36C U38C, the self-cleavage is 0.

As to U9C A12G G30A A41U, the self-cleavage was found to be 0.

For U9C G17C G22U, the self-cleavage came to 0.04.

For the variant U9C A12G G22A G33U C45U, the self-cleavage came to 0.01.

With U9G A39G G40U C45U, the self-cleavage amounted to 0.08.

Regarding U9G A14C C31U, the self-cleavage is 0.01.

Turning to U9C C23A U28G U32A, the self-cleavage turned out to be 0.01.

Take U9G A25C G33C U43A: the self-cleavage amounted to 0.19.

Take U9C A14G G40C U43C: the self-cleavage came to 0.03.

For U9C G29U G40U, the self-cleavage worked out at 0.07.

U9G A26C U28C: the self-cleavage is 0.04.

As for U9G A39G A41G C46A, the self-cleavage was determined as 0.

As for U9G A12U C23G G40A, the self-cleavage came to 0.01.

For U9C A12U U20C G30A C31A G40U C46U, the self-cleavage was found to be 0.

U9C C13G A14G U28A G33A: the self-cleavage came out at 0.03.

Consider U9C C10U U20A, for which the self-cleavage was determined as 0.01.

Regarding U9C C10G G19U A24C G27C G40C U43G C45A, the self-cleavage was determined as 0.

In the case of U9C C13U C15G, the self-cleavage amounted to 0.04.

Take U9C G33A U34G: the self-cleavage was 0.02.

Consider U9C C18U G22C, for which the self-cleavage was determined as 0.03.

With U9C A11C C18U G33U, the self-cleavage was found to be 0.04.

Turning to U9G A12G C13A G29U C46U, the self-cleavage was determined as 0.02.

As to U9C G17A C42U, the self-cleavage amounted to 0.06.

For the variant U9C C13A G19U U20G, the self-cleavage came out at 0.03.

On to U9G A25U G27C G30U C45A, for which the self-cleavage is 0.01.

Turning to U9C A16U G17A C18U, the self-cleavage was found to be 0.

As to U9C G29A G36U A41C, the self-cleavage was 0.05.

As for U9G A12G G21A, the self-cleavage was found to be 0.01.

Take U9C U20C G33A C42U: the self-cleavage stood at 0.02.

With U9C A12C G19U A41U, the self-cleavage is 0.03.

U9C G35C C37U A39U: the self-cleavage was 0.01.

For the variant U9G C10G C13G U32C C45A, the self-cleavage stood at 0.01.

Consider U9C G27C C42U C45G, for which the self-cleavage turned out to be 0.

Consider U9C C10U G27A C31G, for which the self-cleavage was 0.

For the variant U9G A14U G19A U43A, the self-cleavage came out at 0.01.

On to U9A U28G C46A, for which the self-cleavage is 0.11.

On to U9G A24G U32C, for which the self-cleavage amounted to 0.04.

In the case of U9C A11C G40U, the self-cleavage worked out at 0.

For the variant U9C A16G G21U G30A, the self-cleavage turned out to be 0.02.

With U9C C23G U28A G29A C31G, the self-cleavage was determined as 0.02.

As to U9C G30A G33A G36A A39U, the self-cleavage came to 0.02.

Consider U9G C10A A11G A39U G40C, for which the self-cleavage was found to be 0.01.

For U9G C10A C13A C18U, the self-cleavage was found to be 0.

For U9G C10A G33A, the self-cleavage came out at 0.

Consider U9G A25G G36A, for which the self-cleavage is 0.1.

Take U9C C15U G22U G29C: the self-cleavage was 0.04.

With U9G A11C A39G, the self-cleavage worked out at 0.

Turning to U9C C10A A11C A14C A25C U34A G36A, the self-cleavage stood at 0.01.

Regarding U9C C45U C46A, the self-cleavage was 0.05.

Consider U9G C10G A11U A16G A39G G44A, for which the self-cleavage came to 0.01.

For U9C G17U A24G G35A, the self-cleavage amounted to 0.

As to U9C A11G C13A G29U A39U C42A, the self-cleavage was 0.01.

As for U9G C10A G27A U34A C42G U43G, the self-cleavage was 0.01.

Turning to U9C C13G G17A U32C, the self-cleavage was 0.

With U9G A25C A39U C46G, the self-cleavage was 0.02.

As to U9C C23G C45U, the self-cleavage is 0.03.

With U9C A14U C23G, the self-cleavage came out at 0.01.

U9C C10G G29U: the self-cleavage came to 0.

U9A U20G C42G: the self-cleavage was 0.05.

Regarding U9C C23A A25U G29U U43C, the self-cleavage was found to be 0.

U9C C10A A25G: the self-cleavage was found to be 0.01.

Take U9C G29C G36C: the self-cleavage amounted to 0.01.

As to U9C G17A G19A C31G C42G, the self-cleavage turned out to be 0.03.

U9C A14U A25C G29A C31U: the self-cleavage was found to be 0.03.

Turning to U9C C23G C31U G40A G44U, the self-cleavage came to 0.01.

As to U9C C10A G27A G40U, the self-cleavage is 0.02.

Take U9C C15U G17U C23U: the self-cleavage turned out to be 0.09.

Regarding U9C G17A C37U, the self-cleavage was 0.02.

With U9C G17A U20C, the self-cleavage worked out at 0.01.

Consider U9C A26U G35A, for which the self-cleavage came to 0.03.

With U9G A12C C15A C31A, the self-cleavage turned out to be 0.

As for U9C C15A C18U G21U U32C A39C, the self-cleavage is 0.03.

For U9C A16U U20C G27U C37U U43A, the self-cleavage came out at 0.01.

For U9C C15U G27A C46G, the self-cleavage was found to be 0.03.

For the variant U9G A16U G19A U20G G33A G44C, the self-cleavage was 0.03.

Turning to U9G A14G G22C, the self-cleavage amounted to 0.1.

With U9G A14U C23A C42U, the self-cleavage was 0.

For U9C A12C G27U, the self-cleavage stood at 0.01.

For U9G A11G C13U U20C G27U, the self-cleavage was found to be 0.

On to U9C C15U U32G, for which the self-cleavage is 0.04.

Consider U9C C13G G19U, for which the self-cleavage amounted to 0.03.

With U9C C18U C45A, the self-cleavage is 0.03.

Turning to U9C C15A G19A A39G, the self-cleavage is 0.01.

As for U9C G17U G21U A41U, the self-cleavage came out at 0.

Take U9C A41U C45U: the self-cleavage came out at 0.08.

In the case of U9G A12G A14G, the self-cleavage worked out at 0.05.

As for U9C A16G G17U A39C, the self-cleavage worked out at 0.02.

In the case of U9G C10G G21U C42U, the self-cleavage turned out to be 0.01.

Turning to U9C G17A C31G U32C C42G U43C, the self-cleavage was determined as 0.02.

Consider U9C A14U A26G C46A, for which the self-cleavage is 0.02.

Turning to U9C G22U G36A, the self-cleavage came out at 0.16.

Take U9C G17U C42U: the self-cleavage amounted to 0.03.

As to U9C G19U A26U U32A C45A, the self-cleavage stood at 0.01.

Take U9C G30C C42A: the self-cleavage amounted to 0.04.

As to U9C A12C G17C C23U A24U A26U C31U C37U A41G, the self-cleavage was 0.

Regarding U9C A12G A39C, the self-cleavage turned out to be 0.01.

Consider U9C A12C C13G G19C G40A A41G, for which the self-cleavage turned out to be 0.

On to U9C G19A U28C G35U, for which the self-cleavage is 0.02.

For U9C G21A G40C, the self-cleavage was 0.

Take U9A U32A G35A G44U: the self-cleavage came out at 0.12.

Regarding U9C C18G G22A, the self-cleavage turned out to be 0.03.

On to U9C G27C G30U, for which the self-cleavage was determined as 0.03.

With U9C C23A U34A, the self-cleavage stood at 0.03.

Consider U9C G27C U38G, for which the self-cleavage was determined as 0.12.

As to U9G C10G U32G, the self-cleavage is 0.02.

In the case of U9C G17U G21A, the self-cleavage is 0.02.

For the variant U9C G33C G40C, the self-cleavage was found to be 0.02.

For U9C G36A C42A, the self-cleavage was found to be 0.

For the variant U9G A41C C46A, the self-cleavage stood at 0.06.

The record behind these values is the RNAGym collection of RNA variant scans (doi:10.7554/elife.90254).
